Source: PubChem BioAssay AID2546 (National Center for Advancing Translational Sciences (NCATS), 2010)
Screen size: about 310,000 compounds; about 11,000 (3.5%) were called active. The shares of active, inactive and inconclusive entries below differ from those in the screen. Calls follow the shape of the dose curve; as a rule, active = well fitted inhibition curve with a large enough effect; inconclusive = small, poorly fitted or top-dose-only effect, or effect the other way; inactive = flat fitted curve, though single readings scatter. Potencies of inconclusive entries are left out as doubtful fits.

test: VP16 counterscreen qHTS for inhibitors of ROR gamma transcriptional activity; details: Drosophila S2 Gal4-VP16 UAS-luciferase, luminescence, 20 h; activity, negative = inhibition: at 53.6 µM (top of the series);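 also: Gal4-VP16 expression switched on by copper sulfate through the metallothionein promoter; nearly all actives have a fitted effect of over 50% in size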
% is scaled to controls: 0 for no effect and ±100 for the full control effect; potency is read from the fitted curve at half-maximal effect; tags tell the direction and shape of the fitted curve.

| SMILES | Potency | activity, negative = inhibition |
| --- | --- | --- |
| O=C(NCCc1ccccc1)C1CCN(C(=O)c2sccc2-n2cccc2)CC1 | inconclusive [activator, single point] |  |
| CC(C)C1CC(c2ccccc2)(C(CN)CO)CCO1 (stereo not given) | inactive |  |
| CC(=O)N1CCOc2ccc(S(=O)(=O)NCC3CCC(C(=O)Nc4ccc(C)cn4)CC3)cc21 (stereo not given) | inconclusive [inhibitor, single point] |  |
| COc1cc(NC(=O)c2ccc(Cl)cc2Cl)ccc1-c1cc2ccccc2oc1=O | inconclusive [inhibitor, partial curve] |  |
| CCC(C)c1ccc(NC(=S)N2CCCC2)cc1 (stereo not given) | inconclusive [inhibitor, single point] |  |
| COc1ccc(C2=NC(C)(C)Cc3cc(OC)c(OC)cc32)cc1OC | inactive |  |
| Cc1ccc(S(=O)(=O)NCCc2nnc3ccc(SCc4cccnc4)nn23)cc1 | inconclusive [inhibitor, full curve, poor fit] |  |
| CCc1ccc(N(CC(=O)NCc2cccnc2)S(=O)(=O)c2ccccc2)cc1 | active: 14.1 µM |  |
| COc1ccc(S(=O)(=O)N2CCCCC2)cc1NCC(=O)Nc1ccc(C)cc1 | active: 3.55 µM |  |
| COCCn1nnnc1CN1CCN(C(=O)c2ccco2)CC1 | inactive |  |
| CC(C)(C)NC(=O)NC(=O)COC(=O)c1ccc(OC(F)(F)F)cc1 | inconclusive [inhibitor, single point] |  |
| CC(=O)c1ccc(OCc2cc(C(=O)NC(C)c3cnn(C)c3)no2)cc1 (stereo not given) | inconclusive [activator, full curve, poor fit] |  |
| CCNC(=S)NNC(=O)c1cc(C2CC2)nc2ccccc12 | inconclusive [inhibitor, single point] |  |
| Cc1cc(C(=O)CSc2nc3ccccc3o2)c(C)n1CC1CCCO1 (stereo not given) | inconclusive [inhibitor, single point] |  |
| COc1cc(/C=N/NC(=S)NCc2ccccc2)ccc1OCC#N | inconclusive [inhibitor, single point] |  |
| CCCc1nc(-c2ccc(-c3ccc(F)cc3)cc2)no1 | inactive |  |
| OC(COCc1ccccc1)CN1CCc2ccccc2C1 (stereo not given) | inconclusive [activator, single point] |  |
| COc1cccc(NC(=S)N(CCCN2CCOCC2)C(C)c2cc3ccccc3o2)c1 (stereo not given) | inconclusive [inhibitor, single point] |  |
| COCCCNC(=O)c1ccc2c(=O)n(Cc3ccc4c(c3)OCO4)c(=S)[nH]c2c1 | inconclusive [inhibitor, single point] |  |
| COc1ccccc1C(=O)CSc1nccn1C | inconclusive [activator, single point] |  |
| CCCCNC(=O)N1CCN(c2ccnc3cc(Cl)ccc23)CC1 | inconclusive [inhibitor, single point] |  |
| CCCCCCOc1ccc(N2C(=O)CC(S/C(N)=N/N=C(\C)c3cccs3)C2=O)cc1 (stereo not given) | inconclusive [inhibitor, single point] |  |
| CCNC(=S)NNC(=O)c1ccccn1 | inconclusive [inhibitor, single point] |  |

| SMILES | Potency | activity, negative = inhibition |
| --- | --- | --- |
| Cc1cc(C)cc(C(=O)NC(=S)Nc2ccc3c(c2)OCCO3)c1 | active: 3.16 µM |  |
| CCN(CC)C(=O)CSc1ncnc2sccc12 | inconclusive [activator, single point] |  |
| COc1ccccc1CNc1cc(C)ccc1C | inactive |  |
| Cc1ccc(C(=O)Nc2nccs2)cc1S(=O)(=O)N1CCCCC1 | inconclusive [inhibitor, single point] |  |
| O=C(N/N=C/c1ccoc1)c1ccc(Cl)cc1 | inconclusive [inhibitor, single point] |  |
| COc1cc(C(=O)NC(=S)N(C)Cc2ccccc2)cc(OC)c1OC | active: 3.55 µM |  |
| Fc1ccc(NC(=S)NCc2cccnc2)cc1 |  | inactive: 4.36% [at 10 µM] |
| O=c1cc(N2CCc3ccccc3C2)[nH]c(=O)n1C1CCCCC1 | inactive |  |
| CCCCNC1CCS(=O)(=O)C1 (stereo not given) | inconclusive [inhibitor, full curve, poor fit] |  |
| O=C1/C(=C/c2ccc([N+](=O)[O-])cc2)CCc2ccccc21 | inconclusive [inhibitor, single point] |  |
| CC#CCOC(=O)c1c(C)nc2sc3c(c2c1N)CC[C@@H](O)C3 | inconclusive [inhibitor, full curve] |  |
| C/C(=N\NC(=O)c1ccccc1)c1nc2ccccc2n1C | active: 3.16 µM |  |
| CSc1nnc(CCCCCCCCc2nnc(SC)o2)o1 | inactive |  |
| CC(=O)[C@]1(O)Cc2c(O)c3c(c(O)c2[C@@H](O[C@H]2C[C@H](N)[C@H](O)[C@H](C)O2)C1)C(=O)c1c(O)cccc1C3=O | active: 7.08 µM |  |
| O=C(N/N=C/c1cccc(Oc2ccccc2)c1)c1ccccc1Br | inconclusive [inhibitor, single point] |  |
| COc1ccc(N2CCN(c3ccc(NC(=O)C4CCCCC4)cc3C#N)CC2)cc1 | inactive |  |
| O=C(c1ccccc1NS(=O)(=O)c1ccccc1[N+](=O)[O-])N1CCOCC1 | inconclusive [inhibitor, partial curve, poor fit] |  |
| O=C1Nc2ccccc2Nc2ccc([N+](=O)[O-])cc21 | inconclusive [inhibitor, full curve, poor fit] |  |
| CC[C@H](C)[C@H](NC(=O)[C@H](CC(=O)O)NC(=O)[C@H](CC(C)C)NC(=O)[C@H](NC(C)=O)C(c1ccccc1)c1ccccc1)C(=O)N[C@H](C(=O)N[C@@H](Cc1c[nH]c2ccccc12)C(=O)O)[C@@H](C)CC | inactive |  |
| O=C(Nc1ccc[n+](CC(=O)c2cccc3ccccc23)c1)c1ccccc1 | active: 11.2 µM |  |
| FC(F)(F)c1cccc(NC(=S)N(CCCN2CCCC2)Cc2cccn2Cc2ccc(Cl)cc2)c1 | inconclusive [inhibitor, single point] |  |
| CSCc1cc(N(C)C)nc(SCc2ccc(Cl)c(Cl)c2)n1 | inconclusive [inhibitor, single point] |  |
